# Hit rate of the full screen: of about 310,000 compounds, about 14,000 (4.5%) showed an effect of 50% or more. The effect is printed as a negative number. The list shows a part of the results.
# Molecular target: human ether-à-go-go-related gene (hERG) potassium channel (human, UniProt Q12809)
# Assay: primary screen, population patch clamp on CHO cells stably expressing hERG
# 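Further: peak tail current of the secondary pulse compared with the same well before compound.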
# human ether-à-go-go-related gene (hERG) potassium channel, sequence (Q12809 whole entry, looked up): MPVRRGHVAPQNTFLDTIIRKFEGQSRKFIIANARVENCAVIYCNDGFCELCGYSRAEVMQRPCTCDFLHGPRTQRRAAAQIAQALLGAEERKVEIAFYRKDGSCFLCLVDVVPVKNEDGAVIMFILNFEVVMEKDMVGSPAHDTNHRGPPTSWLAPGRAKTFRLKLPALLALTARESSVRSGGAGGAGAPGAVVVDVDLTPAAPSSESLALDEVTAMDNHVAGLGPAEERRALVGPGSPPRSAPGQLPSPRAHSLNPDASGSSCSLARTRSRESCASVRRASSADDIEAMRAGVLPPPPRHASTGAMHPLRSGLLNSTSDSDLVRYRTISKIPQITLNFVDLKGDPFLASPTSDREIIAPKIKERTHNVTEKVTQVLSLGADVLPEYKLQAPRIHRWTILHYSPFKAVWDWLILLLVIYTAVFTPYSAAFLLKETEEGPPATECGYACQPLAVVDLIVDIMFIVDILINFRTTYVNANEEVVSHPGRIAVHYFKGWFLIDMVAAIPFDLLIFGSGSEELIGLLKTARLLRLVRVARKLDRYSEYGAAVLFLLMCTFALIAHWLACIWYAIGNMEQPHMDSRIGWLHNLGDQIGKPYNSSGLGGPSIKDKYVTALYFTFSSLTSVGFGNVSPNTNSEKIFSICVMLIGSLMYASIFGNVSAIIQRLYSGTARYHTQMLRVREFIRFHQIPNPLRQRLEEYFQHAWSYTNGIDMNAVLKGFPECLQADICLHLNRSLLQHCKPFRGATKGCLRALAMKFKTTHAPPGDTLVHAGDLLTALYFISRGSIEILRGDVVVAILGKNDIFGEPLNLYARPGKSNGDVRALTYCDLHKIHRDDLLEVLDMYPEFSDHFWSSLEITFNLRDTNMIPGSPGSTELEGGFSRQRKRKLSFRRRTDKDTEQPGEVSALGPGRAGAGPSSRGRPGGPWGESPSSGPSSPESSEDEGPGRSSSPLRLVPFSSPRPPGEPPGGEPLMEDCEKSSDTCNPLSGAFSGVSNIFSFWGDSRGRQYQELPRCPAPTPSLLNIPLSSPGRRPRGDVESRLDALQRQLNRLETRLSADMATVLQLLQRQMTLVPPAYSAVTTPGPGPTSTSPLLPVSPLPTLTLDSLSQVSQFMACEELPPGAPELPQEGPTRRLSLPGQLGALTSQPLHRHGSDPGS
row,SMILES,"hERG current change (%, negative = inhibition) at 10uM"
1,C=C1C(=O)C=C[C@]2(C)C[C@@H]3OC(=O)[C@](C)(O)[C@H]3C[C@@H]12,0.224%
2,COc1ccc(-n2cnc3cc(C(=O)N4CCC5(CC4)OCCO5)ccc32)cc1,-42.8%
3,CCC(C)NC(=O)c1c(N)n(/N=C/c2cccnc2)c2nc3ccccc3nc12 (stereo not drawn),6.77%
4,CCOC(=O)c1cc2n(n1)C(C(F)(F)C(F)(F)F)CC(C)N2 (stereo not drawn),5.72%
5,O=C(NCC(=O)N(c1ccc2c(c1)OCO2)C(C(=O)NC1CCCC1)c1cccs1)c1ccco1 (stereo not drawn),8.55%
6,CC(=O)C1=C(C)NC(SCC(N)=O)=C(C#N)C1c1ccco1 (stereo not drawn),28.2%
7,CCCS(=O)(=O)N1CCCC(C(=O)NCCN(C)Cc2ccccc2)C1 (stereo not drawn),-8.41%
8,CCOc1ccc(-n2c(=O)[nH]cc(C(=O)Nc3ccc(OC)c(OC)c3)c2=O)cc1,11.9%
9,Cc1ccc(N2CC(NC(=O)C3CC3)CC2=O)cc1 (stereo not drawn),-21.4%
10,COC(=O)C1=C(C(=O)OC)[C@@H]2N(Cc3ccccc3)c3ccccc3[C@@]23C[C@@H](C(=O)OC)N(C(=O)NC2CCCCC2)C3=N1,-12.1%
11,Cc1ccc(C(=O)N/C(=C\c2cn(S(=O)(=O)N(C)C)c3ccccc23)C(=O)NCCCN2CCOCC2)cc1,-18.7%
12,CSCC[C@H](NC(=O)[C@@H]1Cc2ccccc2CN1)C(=O)Nc1cccc(C)c1,-40.1%
13,COC(=O)[C@H](C)NC(=O)Nc1ccc(OC)cc1OC,-5.46%
14,CCN1CCn2c3c(c4cccc(C)c42)CCCC31.Cl (stereo not drawn),-28.9%
15,CCc1c(C)sc(NC(=O)OC)c1C(=O)N1CCCCC1,-4.94%
16,CSc1nc(Cl)cc(Nc2ccc(O)cc2)n1,-16.7%
17,COC(=O)c1ccccc1NC(=O)NCc1ccccn1,-6.01%
18,CC(Sc1nnc(-c2ccncc2)n1-c1ccc(F)cc1)C(=O)NC1CC1 (stereo not drawn),4.1%
19,CCN(C(=O)CSc1nnc(-c2ccc(F)cc2)c2ccccc12)C1CCS(=O)(=O)C1 (stereo not drawn),-42.3%

row,SMILES,"hERG current change (%, negative = inhibition) at 10uM"
1,O=C1C2ON(c3ccc(Br)cc3)C(c3cccnc3)C2C(=O)N1C1CCCCC1 (stereo not drawn),-10.7%
2,CCOc1cc(N2CCOCC2)c(OCC)cc1NC(=O)COC(=O)c1ccccc1C,-39.4%
3,COc1ccc(CCNC(=S)Nc2ccc(C)cc2C)cc1,2.89%
4,CC1Cc2ccccc2N1C(=O)c1ccc2nccnc2c1 (stereo not drawn),0.174%
5,CC1CCc2nc(NC(=O)C3CC3)sc2C1 (stereo not drawn),-1.82%
6,Cc1ccc(NC(=O)CSc2nc(C)c(Cc3ccccc3)c(=O)[nH]2)cc1C,21.2%
7,O=C(c1ccsc1)N1CCCC(N2CCN(c3ccccc3F)CC2)C1 (stereo not drawn),-4.2%
8,CC12CCC(=O)N1C(C(=O)Nc1nc3ccccc3s1)CS2 (stereo not drawn),2.45%
9,O=C(CCN1C(=O)c2ccccc2C1=O)Nc1ccc(S(=O)(=O)N2CCOCC2)cc1,-7.55%
10,Cc1ccc2nc(SCC(=O)c3ccc4c(c3)OCO4)[nH]c2c1,-5.49%
11,CCC(=O)N1N=C(c2ccc(NS(=O)(=O)CC)cc2)CC1c1ccc(C)cc1 (stereo not drawn),-14.1%
12,O=C(CSc1nnc(-c2ccncc2)n1Cc1ccco1)Nc1ccccc1Cl,-36.3%
13,CCOC(=O)CC1COc2ccccc2N1C(=O)c1cccc([N+](=O)[O-])c1 (stereo not drawn),-30.9%
14,COCCN(C(=O)CSc1nnc(C)n1-c1ccccc1)c1c(N)n(Cc2ccccc2)c(=O)[nH]c1=O,10.8%
15,O=S1(=O)CCN(CCc2c[nH]c3ccccc23)CC1,9.02%
16,Cn1c(N2CCN(S(=O)(=O)c3ccc(Cl)cc3)CC2)nc2ccccc21,-34%
17,COc1cccc(-c2noc(-c3ccc4c(c3)OCO4)n2)c1,10.9%
18,Cc1ccccc1NC(=O)c1c(-c2ccccc2)noc1C,5.96%
19,CCN(C1CCS(=O)(=O)C1)S(=O)(=O)c1cccs1 (stereo not drawn),14.8%

row,SMILES,"hERG current change (%, negative = inhibition) at 10uM"
1,CCc1ccc(NC(=O)N(CCCOC(C)C)C2CCN(C(C)=O)CC2)cc1,-34.1%
2,COc1ccccc1C/C(N)=N/OC(=O)c1ccc2c(c1)OCO2,36.5%
3,CC(CCc1ccccc1)NC(=O)c1cccs1 (stereo not drawn),-39.8%
4,CCOC(=O)C(Cc1ccc(NC(C)=O)cc1)N1C(=O)c2ccccc2C1=O (stereo not drawn),0.00638%
5,O=C(NCc1n[nH]c(=S)n1-c1ccc([N+](=O)[O-])cc1)c1ccc(S(=O)(=O)N2CCOCC2)cc1,11.5%
6,COC(=O)c1c(C)[nH]c(C(=O)/C=C/c2cccc(Cl)c2)c1C,8.69%
7,Cc1cccc(OCC(=O)NCC(=O)n2nc(C)cc2C)c1,10.5%
8,O=C1CSC(=S)N1c1ccc(F)cc1,19.2%
9,Cc1nn2c(nc1=O)SCC(c1ccccc1)=N2,3.63%
10,S=c1[nH]ccn1-c1ccccc1Cl,20.3%
11,CC(=O)Nc1ccc(N2C(=O)CC(Sc3nc(C)cc(C)n3)C2=O)cc1 (stereo not drawn),13.3%
12,O=C(c1ccc(NS(=O)(=O)c2ccccc2)cc1)N1CCCC1,-8.95%
13,Cc1ccc(-c2cc(-c3ccccc3Cl)c(C#N)c(N)n2)o1,3.05%
14,O=C(COC(=O)C1CCCN1C(=O)c1cccs1)Nc1ccc2c(c1)OCO2 (stereo not drawn),-11.9%
15,COc1cc(N)c(Cl)cc1Cl,11.9%
16,COc1cccc(CNS(=O)(=O)c2ccc3c(c2)N(C(C)=O)CCS3)c1,-6.28%
17,CCCOC(=O)CSc1nc(N)c(C#N)c(CC)c1C#N,-8.69%
18,COc1cccc(C2=CC(c3ccc(OC)c(OC)c3)NC(=S)N2)c1 (stereo not drawn),9.25%
19,COc1ccc2nc(C)cc(SCC(=O)OC(C)C)c2c1,-34.5%

# From publication PMC4336329 (PLoS ONE, 2015)
